# This is one part of the list. Binding of human transcription factors and regulators to the viral nucleoprotein by AlphaScreen, crude cell-free proteins, amounts not normalised, one pass. Fold of the Venus control; higher = more signal. No active / inactive call. Single-pass screen; sequences are the whole Swiss-Prot entries looked up by name.
# B1: HEY1, Q9Y5J3 (protein)
# chain: MKRAHPEYSSSDSELDETIEVEKESADENGNLSSALGSMSPTTSSQILARKRRRGIIEKRRRDRINNSLSELRRLVPSAFEKQGSAKLEKAEILQMTVDHLKMLHTAGGKGYFDAHALAMDYRSLGFRECLAEVARYLSIIEGLDASDPLRVRLVSHLNNYASQREAASGAHAGLGHIPWGTVFGHHPHIAHPLLLPQNGHGNAGTTASPTEPHHQGRLGSAHPEAPALRAPPSGSLGPVLPVVTSASKLSPPLLSSVASLSAFPFSFGSFHLLSPNALSPSAPTQAANLGKPYRPWGTEIGAF
# B2: RLIM, Q9NVW2 (protein)
# chain: MENSDSNDKGSGDQSAAQRRSQMDRLDREEAFYQFVNNLSEEDYRLMRDNNLLGTPGESTEEELLRRLQQIKEGPPPQNSDENRGGDSSDDVSNGDSIIDWLNSVRQTGNTTRSGQRGNQSWRAVSRTNPNSGDFRFSLEINVNRNNGSQNSENENEPSARRSSGENVENNSQRQVENPRSESTSARPSRSERNSTEALTEVPPTRGQRRARSRSPDHRRTRARAERSRSPLHPMSEIPRRSHHSISSQTFEHPLVNETEGSSRTRHHVTLRQQISGPELLSRGLFAASGTRNASQGAGSSDTAASGESTGSGQRPPTIVLDLQVRRVRPGEYRQRDSIASRTRSRSQTPNNTVTYESERGGFRRTFSRSERAGVRTYVSTIRIPIRRILNTGLSETTSVAIQTMLRQIMTGFGELSYFMYSDSDSEPTGSVSNRNMERAESRSGRGGSGGGSSSGSSSSSSSSSSSSSSSSSSSSPSSSSGGESSETSSDLFEGSNEGSSSSGSSGARREGRHRAPVTFDESGSLPFLSLAQFFLLNEDDDDQPRGLTKEQIDNLAMRSFGENDALKTCSVCITEYTEGNKLRKLPCSHEYHVHCIDRWLSENSTCPICRRAVLASGNRESVV
# B3: MLLT10, P55197 (protein)
# chain: MVSSDRPVSLEDEVSHSMKEMIGGCCVCSDERGWAENPLVYCDGHGCSVAVHQACYGIVQVPTGPWFCRKCESQERAARVRCELCPHKDGALKRTDNGGWAHVVCALYIPEVQFANVSTMEPIVLQSVPHDRYNKTCYICDEQGRESKAATGACMTCNKHGCRQAFHVTCAQFAGLLCEEEGNGADNVQYCGYCKYHFSKLKKSKRGSNRSYDQSLSDSSSHSQDKHHEKEKKKYKEKDKHKQKHKKQPEPSPALVPSLTVTTEKTYTSTSNNSISGSLKRLEDTTARFTNANFQEVSAHTSSGKDVSETRGSEGKGKKSSAHSSGQRGRKPGGGRNPGTTVSAASPFPQGSFSGTPGSVKSSSGSSVQSPQDFLSFTDSDLRNDSYSHSQQSSATKDVHKGESGSQEGGVNSFSTLIGLPSTSAVTSQPKSFENSPGDLGNSSLPTAGYKRAQTSGIEEETVKEKKRKGNKQSKHGPGRPKGNKNQENVSHLSVSSASPTSSVASAAGSITSSSLQKSPTLLRNGSLQSLSVGSSPVGSEISMQYRHDGACPTTTFSELLNAIHNGIYNSNDVAVSFPNVVSGSGSSTPVSSSHLPQQSSGHLQQVGALSPSAVSSAAPAVATTQANTLSGSSLSQAPSHMYGNRSNSSMAALIAQSENNQTDQDLGDNSRNLVGRGSSPRGSLSPRSPVSSLQIRYDQPGNSSLENLPPVAASIEQLLERQWSEGQQFLLEQGTPSDILGMLKSLHQLQVENRRLEEQIKNLTAKKERLQLLNAQLSVPFPTITANPSPSHQIHTFSAQTAPTTDSLNSSKSPHIGNSFLPDNSLPVLNQDLTSSGQSTSSSSALSTPPPAGQSPAQQGSGVSGVQQVNGVTVGALASGMQPVTSTIPAVSAVGGIIGALPGNQLAINGIVGALNGVMQTPVTMSQNPTPLTHTTVPPNATHPMPATLTNSASGLGLLSDQQRQILIHQQQFQQLLNSQQLTPEQHQAFLYQLMQHHHQQHHQPELQQLQIPGPTQIPINNLLAGTQAPPLHTATTNPFLTIHGDNASQKVARLSDKTGPVAQEKS
# B4: PSMD10, O75832 (protein)
# chain: MEGCVSNLMVCNLAYSGKLEELKESILADKSLATRTDQDSRTALHWACSAGHTEIVEFLLQLGVPVNDKDDAGWSPLHIAASAGRDEIVKALLGKGAQVNAVNQNGCTPLHYAASKNRHEIAVMLLEGGANPDAKDHYEATAMHRAAAKGNLKMIHILLYYKASTNIQDTEGNTPLHLACDEERVEEAKLLVSQGASIYIENKEEKTPLQVAKGGLGLILKRMVEG
# B5: ZNF202, O95125 (protein)
# chain: MATAVEPEDQDLWEEEGILMVKLEDDFTCRPESVLQRDDPVLETSHQNFRRFRYQEAASPREALIRLRELCHQWLRPERRTKEQILELLVLEQFLTVLPGELQSWVRGQRPESGEEAVTLVEGLQKQPRRPRRWVTVHVHGQEVLSEETVHLGVEPESPNELQDPVQSSTPEQSPEETTQSPDLGAPAEQRPHQEEELQTLQESEVPVPEDPDLPAERSSGDSEMVALLTALSQGLVTFKDVAVCFSQDQWSDLDPTQKEFYGEYVLEEDCGIVVSLSFPIPRPDEISQVREEEPWVPDIQEPQETQEPEILSFTYTGDRSKDEEECLEQEDLSLEDIHRPVLGEPEIHQTPDWEIVFEDNPGRLNERRFGTNISQVNSFVNLRETTPVHPLLGRHHDCSVCGKSFTCNSHLVRHLRTHTGEKPYKCMECGKSYTRSSHLARHQKVHKMNAPYKYPLNRKNLEETSPVTQAERTPSVEKPYRCDDCGKHFRWTSDLVRHQRTHTGEKPFFCTICGKSFSQKSVLTTHQRIHLGGKPYLCGECGEDFSEHRRYLAHRKTHAAEELYLCSECGRCFTHSAAFAKHLRGHASVRPCRCNECGKSFSRRDHLVRHQRTHTGEKPFTCPTCGKSFSRGYHLIRHQRTHSEKTS
# B6: SIX6, O95475 (protein)
# chain: MFQLPILNFSPQQVAGVCETLEESGDVERLGRFLWSLPVAPAACEALNKNESVLRARAIVAFHGGNYRELYHILENHKFTKESHAKLQALWLEAHYQEAEKLRGRPLGPVDKYRVRKKFPLPRTIWDGEQKTHCFKERTRHLLREWYLQDPYPNPSKKRELAQATGLTPTQVGNWFKNRRQRDRAAAAKNRLQQQVLSQGSGRALRAEGDGTPEVLGVATSPAASLSSKAATSAISITSSDSECDI
# Molecular target: nucleoprotein N of Crimean-Congo hemorrhagic fever virus
# Assay: AlphaScreen luminescence signal relative to Venus negative control (fold); higher = stronger binding to CCHFV N
# Method: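 AlphaScreen binding of cell-free made, FLAG-GST-tagged human transcription factors and regulators (crude translation products) to biotinylated N protein; signal as fold of the FLAG-GST-Venus control. One pass.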
row,Binder,AlphaScreen luminescence signal
1,B1,1.95
2,B2,2.93
3,B3,1.3
4,B4,1.02
5,B5,2.05
6,B6,60.6

# — the supplement of paper PMC12423691
